Source: the supplement of paper PMC10126150
Sequences with one replicate were seen in a single cluster, so their values are uncertain.
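Further: ATP exposure 15 min at 22 °C before imaging.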

Each sequence was assayed on ATP (assay: switch fluorescence ratio, 500 uM ATP over buffer (Cy3 cluster intensity, sum of 5 cycles each) (fold (ratio)); higher = stronger signal-on switching upon ATP binding; sequences stand for … in TCGTCGGCAGCGTCAGATGTGTATAAGAGACAGTTTTTTTTTTTTTTTTTTTTTTTTT…TC). Conditions: aptamer strand: ATP DNA aptamer (quencher-CACCTGGGGGAGTATTGCGGAGGAAGG + anchor), 100 nM annealed; ATP concentration: 500 uM; one replicate.
Method in brief: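 Five buffer/ATP imaging cycles were run on Cy3-labelled switching-strand clusters on a modified Illumina MiSeq flow-cell, with NaOH stripping and re-annealing between cycles. In each cycle, clusters annealed to 100 nM quencher-labelled ATP aptamer were imaged in selection buffer, then after 15 min with 500 uM ATP at 22 °C. Per cluster, the fluorescence ratio is summed target-cycle over summed buffer-cycle Cy3 intensity, averaged per switch-domain sequence. Only clusters within 100-1000 RFU were kept.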
With AAGTTAAGAT the switch fluorescence ratio was 0.993. AAGTTCAAT showed a switch fluorescence ratio of 1.02. Work on AAGTTCGGAA yielded a switch fluorescence ratio of 0.973. AAGTTCTGCA was tested, and the switch fluorescence ratio was 0.959. With AAGTTGGACC the switch fluorescence ratio was 1. Sequence AAGTTTAC has a switch fluorescence ratio of 1.03. AATAAACTAA was tested, and the switch fluorescence ratio was 0.973. AATAACCATG gave a switch fluorescence ratio of 1.05. AATAAGAATC gave a switch fluorescence ratio of 0.972. For AATAAGCGC, the switch fluorescence ratio was 1.03. For AATAAGGAGG, the switch fluorescence ratio was 0.998. Sequence AATAATGGAC has a switch fluorescence ratio of 1.03. AATAATTCAC gave a switch fluorescence ratio of 1.05. Work on AATACGTATC yielded a switch fluorescence ratio of 1.11. AATACTACTC gave a switch fluorescence ratio of 1.11. In the case of AATACTTACG, the switch fluorescence ratio is reported as 1.59. AATAGCATCT showed a switch fluorescence ratio of 1. Sequence AATAGCCCTA has a switch fluorescence ratio of 1.02. AATAGCGGGC showed a switch fluorescence ratio of 1.06. With AATAGGCGGA the switch fluorescence ratio was 0.981. In the case of AATAGTACGA, the switch fluorescence ratio is reported as 1.06. In the case of AATAGTGATA, the switch fluorescence ratio is reported as 1.01. AATAGTGCCG showed a switch fluorescence ratio of 0.925. AATAGTTCTC gave a switch fluorescence ratio of 1. For AATATACAGT, the switch fluorescence ratio was 1.07. With AATATCCCCT the switch fluorescence ratio was 1.08. AATATCCTCG showed a switch fluorescence ratio of 1.02. AATATGAA was tested, and the switch fluorescence ratio was 0.984. Work on AATATGATAC yielded a switch fluorescence ratio of 1.02. With AATATTATAG the switch fluorescence ratio was 1.02. Sequence AATATTTATC has a switch fluorescence ratio of 0.965. Sequence AATCACCTGA has a switch fluorescence ratio of 1. AATCACGGGC showed a switch fluorescence ratio of 1. With AATCATACGG the switch fluorescence ratio was 1.03. AATCCAAGGT showed a switch fluorescence ratio of 1.02. AATCCCGACT gave a switch fluorescence ratio of 0.995. Work on AATCCGAGAG yielded a switch fluorescence ratio of 1.04. AATCCGCGCG showed a switch fluorescence ratio of 1.07. Sequence AATCGACATC has a switch fluorescence ratio of 1.02. AATCGCCAAG was tested, and the switch fluorescence ratio was 0.98. AATCGGCAGG was tested, and the switch fluorescence ratio was 0.993. AATCGGGTTA gave a switch fluorescence ratio of 0.977. In the case of AATCGGTATA, the switch fluorescence ratio is reported as 1.01. Sequence AATCGTATCA has a switch fluorescence ratio of 0.964. AATCGTCAC showed a switch fluorescence ratio of 1.05. In the case of AATCTCCTCC, the switch fluorescence ratio is reported as 1.67. In the case of AATCTCTTAA, the switch fluorescence ratio is reported as 0.983. With AATCTGAAGG the switch fluorescence ratio was 1.03. Sequence AATGAAACCT has a switch fluorescence ratio of 2.63. In the case of AATGAATACT, the switch fluorescence ratio is reported as 1.07. With AATGAATCTT the switch fluorescence ratio was 1. For AATGACGAAG, the switch fluorescence ratio was 0.931. In the case of AATGAGAGGG, the switch fluorescence ratio is reported as 0.94. Sequence AATGAGGCGG has a switch fluorescence ratio of 0.953. Work on AATGAGGTCA yielded a switch fluorescence ratio of 1.04. For AATGATTCTG, the switch fluorescence ratio was 1.01. AATGCAAATG gave a switch fluorescence ratio of 0.983. AATGCACACT gave a switch fluorescence ratio of 1.01. In the case of AATGCAGCGC, the switch fluorescence ratio is reported as 1.05. AATGCAGCGG gave a switch fluorescence ratio of 1.01. Sequence AATGCCAGCC has a switch fluorescence ratio of 1.07. Sequence AATGCCAGGC has a switch fluorescence ratio of 0.993. AATGCCTCGC gave a switch fluorescence ratio of 0.99. AATGCGACGT gave a switch fluorescence ratio of 1.01. Sequence AATGCGGACA has a switch fluorescence ratio of 1. Work on AATGCGGGAC yielded a switch fluorescence ratio of 1.16. Sequence AATGCGGTTG has a switch fluorescence ratio of 1.01. Work on AATGCTGCAC yielded a switch fluorescence ratio of 1.08. AATGCTTTTG was tested, and the switch fluorescence ratio was 1.01. AATGGAAGTA was tested, and the switch fluorescence ratio was 1.03. AATGGACCAG was tested, and the switch fluorescence ratio was 1.01. AATGGATTGA was tested, and the switch fluorescence ratio was 1.01. Work on AATGGCATTG yielded a switch fluorescence ratio of 0.996. AATGGGATCA gave a switch fluorescence ratio of 0.993. AATGGGCCAG showed a switch fluorescence ratio of 0.962. In the case of AATGGGCTAC, the switch fluorescence ratio is reported as 0.991. In the case of AATGGGGTTG, the switch fluorescence ratio is reported as 1.04. AATGGGTCCA was tested, and the switch fluorescence ratio was 0.956. AATGGTAGTT showed a switch fluorescence ratio of 0.992. AATGGTCAGG showed a switch fluorescence ratio of 1.02. With AATGGTCCAT the switch fluorescence ratio was 0.995. For AATGGTTACT, the switch fluorescence ratio was 0.989. AATGTAAAGC showed a switch fluorescence ratio of 0.992. With AATGTACGTA the switch fluorescence ratio was 1.06. AATGTATATG showed a switch fluorescence ratio of 0.978. For AATGTCACGG, the switch fluorescence ratio was 1.05. AATGTCAGGT showed a switch fluorescence ratio of 0.948. With AATGTCCGGA the switch fluorescence ratio was 1.01. Sequence AATGTCCGGT has a switch fluorescence ratio of 0.972. With AATGTCCTCT the switch fluorescence ratio was 0.983. AATGTCTAAC showed a switch fluorescence ratio of 0.975. AATGTCTCTG gave a switch fluorescence ratio of 1.03. AATGTGACGT was tested, and the switch fluorescence ratio was 1.01. With AATGTGGGGC the switch fluorescence ratio was 0.965. AATGTGTAAT was tested, and the switch fluorescence ratio was 1.13. AATGTGTGCA was tested, and the switch fluorescence ratio was 1. With AATGTTATCG the switch fluorescence ratio was 0.961. AATTAAATTC was tested, and the switch fluorescence ratio was 1.09. Work on AATTAAGTGC yielded a switch fluorescence ratio of 1.01. AATTACGGGA gave a switch fluorescence ratio of 1.01. AATTACGTCT showed a switch fluorescence ratio of 0.984. For AATTATAGAA, the switch fluorescence ratio was 1.02. Sequence AATTATAGCG has a switch fluorescence ratio of 1.01. Work on AATTCACTTT yielded a switch fluorescence ratio of 1.02. AATTCCCGGG gave a switch fluorescence ratio of 0.963. AATTCGGATC showed a switch fluorescence ratio of 0.99. AATTCGTGGC was tested, and the switch fluorescence ratio was 1.04. AATTCTATC gave a switch fluorescence ratio of 1.01. AATTCTCTTT was tested, and the switch fluorescence ratio was 1.03. AATTGACAGT gave a switch fluorescence ratio of 1.06. Sequence AATTGACTTG has a switch fluorescence ratio of 1.05. For AATTGATTAT, the switch fluorescence ratio was 1.02. Sequence AATTGCCTTA has a switch fluorescence ratio of 1.01. AATTGCTCGC was tested, and the switch fluorescence ratio was 1.05. AATTGGAGGT was tested, and the switch fluorescence ratio was 0.999. AATTGGAGT was tested, and the switch fluorescence ratio was 1.02. Work on AATTGGCGGG yielded a switch fluorescence ratio of 1.01. Sequence AATTGGGGAG has a switch fluorescence ratio of 0.97. With AATTGGGTCA the switch fluorescence ratio was 0.948. In the case of AATTGGGTGG, the switch fluorescence ratio is reported as 0.995. In the case of AATTGGTAAG, the switch fluorescence ratio is reported as 0.974. In the case of AATTGTACGT, the switch fluorescence ratio is reported as 1.02. AATTGTCTTC was tested, and the switch fluorescence ratio was 1.01. With AATTTAACTA the switch fluorescence ratio was 1. Sequence AATTTACCCT has a switch fluorescence ratio of 1.29. Work on AATTTAGTTC yielded a switch fluorescence ratio of 0.984. Sequence AATTTATACG has a switch fluorescence ratio of 1. Sequence AATTTATAGT has a switch fluorescence ratio of 1.01. Sequence AATTTGATAT has a switch fluorescence ratio of 0.967. AATTTGCCAG gave a switch fluorescence ratio of 1.02. AATTTGGACA gave a switch fluorescence ratio of 1.03. AATTTGGACG was tested, and the switch fluorescence ratio was 0.929. In the case of AATTTGGAGA, the switch fluorescence ratio is reported as 0.999. AATTTTACCC gave a switch fluorescence ratio of 1.09. Work on AATTTTGAGT yielded a switch fluorescence ratio of 0.981. Work on AATTTTGTAT yielded a switch fluorescence ratio of 1.01. AATTTTTGGC was tested, and the switch fluorescence ratio was 0.96. ACAAAAAGAG showed a switch fluorescence ratio of 1.1. ACAAAAGGTT showed a switch fluorescence ratio of 1.04. ACAAAATGGA gave a switch fluorescence ratio of 1.05. ACAAACCTGC showed a switch fluorescence ratio of 1.52. Work on ACAAAGCCTT yielded a switch fluorescence ratio of 1.11. ACAAAGGACA showed a switch fluorescence ratio of 1.03. Sequence ACAACAACAA has a switch fluorescence ratio of 1.01. ACAACACTGA was tested, and the switch fluorescence ratio was 1.31. ACAACATGGC gave a switch fluorescence ratio of 1.21. ACAACCATAT showed a switch fluorescence ratio of 1.02. With ACAAGAGAGT the switch fluorescence ratio was 1. ACAAGCCGGA was tested, and the switch fluorescence ratio was 1.02. For ACAAGGCCCG, the switch fluorescence ratio was 1.04. For ACAAGGTCAG, the switch fluorescence ratio was 1.04. ACAAGTCGCG showed a switch fluorescence ratio of 0.996. ACAAGTCGGA showed a switch fluorescence ratio of 1.03. With ACAATGGGA the switch fluorescence ratio was 0.938. ACAATGTAT gave a switch fluorescence ratio of 1. In the case of ACAATGTCAG, the switch fluorescence ratio is reported as 1.02. ACAATTAAA showed a switch fluorescence ratio of 1.01. ACAATTGAT showed a switch fluorescence ratio of 1.02. Work on ACAATTTACA yielded a switch fluorescence ratio of 1.11. ACAATTTGTA gave a switch fluorescence ratio of 0.974. ACACAGGAGG gave a switch fluorescence ratio of 1.03. For ACACATTGGC, the switch fluorescence ratio was 1. In the case of ACACATTTT, the switch fluorescence ratio is reported as 0.982. For ACACCCATCC, the switch fluorescence ratio was 1.35. Sequence ACACCCCCTC has a switch fluorescence ratio of 1.61. ACACCGCCAA gave a switch fluorescence ratio of 3.23. Work on ACACGATTCA yielded a switch fluorescence ratio of 1.03. ACACGCGAGG was tested, and the switch fluorescence ratio was 1.02. For ACACTAAATC, the switch fluorescence ratio was 1.07. Sequence ACACTAATGT has a switch fluorescence ratio of 1.08. ACACTAGTCG was tested, and the switch fluorescence ratio was 1.02. ACACTGAGTT gave a switch fluorescence ratio of 1.06. Sequence ACACTGCCG has a switch fluorescence ratio of 1.16. ACACTGTCGC gave a switch fluorescence ratio of 1.08. ACACTGTTTT showed a switch fluorescence ratio of 1. ACACTTTATT was tested, and the switch fluorescence ratio was 1.05. With ACAGACTAGA the switch fluorescence ratio was 1.08. ACAGACTCTG gave a switch fluorescence ratio of 0.996. ACAGAGCGGA was tested, and the switch fluorescence ratio was 1.02. With ACAGAGTCTG the switch fluorescence ratio was 1.04. ACAGATCAGG gave a switch fluorescence ratio of 1.04. ACAGATGGAC was tested, and the switch fluorescence ratio was 1.02. Sequence ACAGCACCAC has a switch fluorescence ratio of 1.53. ACAGCCCAAC showed a switch fluorescence ratio of 1.14. ACAGCGCCAT was tested, and the switch fluorescence ratio was 0.97. Work on ACAGGAAGTC yielded a switch fluorescence ratio of 0.983. Work on ACAGGACTGT yielded a switch fluorescence ratio of 0.992. Work on ACAGGAGACC yielded a switch fluorescence ratio of 1.01. Work on ACAGGATTCA yielded a switch fluorescence ratio of 0.998. ACAGGCGGTT gave a switch fluorescence ratio of 0.955. ACAGGCTTAT was tested, and the switch fluorescence ratio was 0.986. For ACAGGGATAT, the switch fluorescence ratio was 0.978. ACAGGGCTA gave a switch fluorescence ratio of 0.992. For ACAGGTAAAT, the switch fluorescence ratio was 1. ACAGGTACGG was tested, and the switch fluorescence ratio was 1.09. Work on ACAGGTAGTT yielded a switch fluorescence ratio of 1.03. ACAGTAAAAG was tested, and the switch fluorescence ratio was 1.25. ACAGTATACA showed a switch fluorescence ratio of 1.18. Sequence ACAGTCCTTC has a switch fluorescence ratio of 1.04. For ACAGTCGTGG, the switch fluorescence ratio was 1.03.
